These results are taken from article PMC4336329 (PLoS ONE, 2015).

Molecules are shown by their SMILES. The whole screen tested about 310,000 compounds, of which about 2,200 (0.71%) showed an effect of 50% or more. The effect is printed as a negative number. Some of the results follow.

The experiment deals with human ether-à-go-go-related gene (hERG) potassium channel (human, UniProt Q12809). In words: primary screen, population patch clamp on CHO cells stably expressing hERG.
Chain of human ether-à-go-go-related gene (hERG) potassium channel (Q12809 whole entry, looked up): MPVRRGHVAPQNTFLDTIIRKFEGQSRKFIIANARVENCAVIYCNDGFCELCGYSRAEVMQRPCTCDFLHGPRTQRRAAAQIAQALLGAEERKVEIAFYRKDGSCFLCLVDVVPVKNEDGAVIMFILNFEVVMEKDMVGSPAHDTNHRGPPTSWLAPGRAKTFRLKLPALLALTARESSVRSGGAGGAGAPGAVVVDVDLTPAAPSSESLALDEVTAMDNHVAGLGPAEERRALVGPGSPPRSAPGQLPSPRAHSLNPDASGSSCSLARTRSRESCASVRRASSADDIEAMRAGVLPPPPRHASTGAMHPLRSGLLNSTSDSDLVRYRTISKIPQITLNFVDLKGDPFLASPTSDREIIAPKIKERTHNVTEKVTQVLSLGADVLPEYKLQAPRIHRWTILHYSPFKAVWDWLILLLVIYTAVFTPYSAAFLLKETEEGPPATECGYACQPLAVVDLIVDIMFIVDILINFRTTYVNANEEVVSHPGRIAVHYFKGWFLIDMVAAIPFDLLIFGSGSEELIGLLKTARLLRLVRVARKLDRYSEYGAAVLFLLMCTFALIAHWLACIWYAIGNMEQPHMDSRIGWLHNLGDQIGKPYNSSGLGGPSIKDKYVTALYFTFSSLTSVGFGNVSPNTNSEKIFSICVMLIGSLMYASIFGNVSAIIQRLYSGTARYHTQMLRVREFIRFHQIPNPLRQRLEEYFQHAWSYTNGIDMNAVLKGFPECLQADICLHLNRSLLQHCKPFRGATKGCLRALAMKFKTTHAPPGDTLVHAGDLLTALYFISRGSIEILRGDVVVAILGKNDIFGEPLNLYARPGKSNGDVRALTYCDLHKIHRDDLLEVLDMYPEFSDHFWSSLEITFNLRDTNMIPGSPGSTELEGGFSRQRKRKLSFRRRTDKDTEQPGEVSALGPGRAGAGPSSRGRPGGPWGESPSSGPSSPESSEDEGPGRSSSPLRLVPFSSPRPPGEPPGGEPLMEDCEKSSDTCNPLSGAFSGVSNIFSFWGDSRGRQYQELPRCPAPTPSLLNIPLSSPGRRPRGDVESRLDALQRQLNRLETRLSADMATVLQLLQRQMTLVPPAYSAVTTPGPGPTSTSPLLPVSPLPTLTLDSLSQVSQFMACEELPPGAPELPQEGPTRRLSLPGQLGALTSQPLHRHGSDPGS
As to `O=C(O)c1cccc(OS(=O)(=O)c2cc(Br)ccc2Br)c1`, the “hERG current change (%, negative = inhibition) at 1uM” value turned out to be 7.18%.
As to `CCc1cccc(CC)c1NC(=O)CSc1nc2ccc(N3C(=O)C4C(C3=O)[C@H]3C=C[C@@H]4C3)cc2s1` (some centres unmarked), the “hERG current change (%, negative = inhibition) at 1uM” value amounted to 10.4%.
Turning to `COCc1cc(C)n(CC(=O)NCc2ccccc2)c(=O)c1C#N`, the “hERG current change (%, negative = inhibition) at 1uM” value was determined as 18.3%.
As to `Cc1ccc(S(=O)(=O)NCC(=O)OCC(=O)c2ccc(Br)s2)cc1`, the “hERG current change (%, negative = inhibition) at 1uM” value is given as 8.43%.
For `O=C(COC(=O)[C@@H]1CCCN1C(=O)c1cccs1)NCCc1ccccc1` the value was 11.6%; for `N/C(CSc1ccc(Cl)cc1)=N\S(=O)(=O)c1ccc(Cl)cc1`, 9.29%.
Take `CN(C)c1oc(/C=C/c2ccccc2)nc1C#N`: the “hERG current change (%, negative = inhibition) at 1uM” value was determined as 15.5%.
As for `CCOC(=O)CSc1nnnn1-c1cc(OC)c(Cl)cc1OC`, the figure is 2.85%; as for `COc1ccc(C(=O)N2CCSC2=S)cc1OC`, 2.63%.
Regarding `C=CCc1c(C)nc(-c2ccccc2)nc1Nc1ccc(O)cc1`, the “hERG current change (%, negative = inhibition) at 1uM” value is 3.65%.
As to `O=C(CSc1nccn1-c1cccc(Cl)c1)NO`, the “hERG current change (%, negative = inhibition) at 1uM” value came out at 4.8%.
As for `COCCC(=O)N1CCC(Oc2ccc(C(=O)NCCc3ccccn3)cc2)CC1`, the figure is 15.4%; as for `CCOc1ccc(N=Cc2c(O)n(CCc3ccc(OC)c(OC)c3)c(=O)[nH]c2=O)cc1`, 13%.
Regarding `CN1CCN(S(=O)(=O)c2ccc(NC(=O)c3ccc(F)cc3Cl)cc2)CC1`, the “hERG current change (%, negative = inhibition) at 1uM” value is 18.2%.
Consider `CC(Oc1ccccc1)C(=O)N1CCN(c2ccc(N3CCOCC3)nn2)CC1` (centres unmarked), for which the “hERG current change (%, negative = inhibition) at 1uM” value stood at 1.96%.
For `CCOc1ccccc1C(=O)N/N=C/c1coc2ccc(C)cc2c1=O` the value was 6.21%; for `COc1ccccc1N1CCN(C(=O)CSc2nc(-c3ccco3)cc(C(F)(F)F)n2)CC1`, 5.61%; for `O=C(CCNS(=O)(=O)c1cccc(Cl)c1)OCC(=O)N1CCN(C(=O)c2ccco2)CC1`, -22.9%.
For `COc1ccccc1CNC(=O)c1oc2ccc(S(=O)(=O)N3CCCC3)cc2c1C` the value was 6.28%.
For the molecule `CCC(Oc1ccccc1)C(=O)N(Cc1ccccc1)c1ccccn1` (centres unmarked), the “hERG current change (%, negative = inhibition) at 1uM” value is listed as 9.42%.
Regarding `Fc1ccc(NC(=S)N/N=C/c2cccc(Br)c2)c(F)c1`, the “hERG current change (%, negative = inhibition) at 1uM” value is listed as 5.57%.
For the molecule `CC(=O)C1=NN(c2ccc(Cl)cc2)C(c2ccc3c(c2)OCO3)N(C(C)=O)N1C` (centres unmarked), the “hERG current change (%, negative = inhibition) at 1uM” value was 12.4%.
Turning to `COc1cccc(N2CCN(c3c4c(nc5ncnn35)CCC4)CC2)c1`, the “hERG current change (%, negative = inhibition) at 1uM” value is on record as -0.656%.
With `O=C(NC1CC1)C1=C[C@@H](c2ccc(Br)cc2)C[C@@H](OCCCCO)O1`, the “hERG current change (%, negative = inhibition) at 1uM” value is 10.6%.
As for `CSc1c(-c2ccccn2)c(N)nn1C(=O)C1CCC1`, the figure is 5.4%.
Turning to `COc1ccc(C2C3=C(CC(C)(C)CC3=O)Oc3ncn(Cc4ccco4)c(=N)c32)cc1` (centres unmarked), the “hERG current change (%, negative = inhibition) at 1uM” value is recorded as -10.6%.
For `Cc1ccc(NC(=O)c2oc3ccc(S(=O)(=O)N4CCOCC4)cc3c2C)cc1C` the value was 0.784%; for `Cc1nc2c(ccc3nc(NC(=O)c4ccc5c(c4)OCCO5)sc32)s1`, -86.6%.
For the molecule `COc1ccc(CC(=O)N2CC(C)CC(C)C2)cc1OC` (centres unmarked), the “hERG current change (%, negative = inhibition) at 1uM” value was determined as 5.78%.
`CC(=O)Nc1ccc(S(=O)(=O)N(C#N)c2nc(N(C)C)nc(N(C)C)n2)cc1`: the “hERG current change (%, negative = inhibition) at 1uM” value is given as 14.2%.
Turning to `N#CC(C#N)=C1C(=O)N(CCN2CCOCC2)c2ccccc21`, the “hERG current change (%, negative = inhibition) at 1uM” value was 16.1%.
For `COc1cc2c3c(c1OC)C1(C=CC(=NNC(N)=O)C=C1)CC3N(C(C)=O)CC2` (centres unmarked) the value was 2.18%.
For `O=C(NCC(c1cccs1)N1CCOCC1)c1cccnc1` (centres unmarked) the value was 7.27%; for `CCC(CC)C(=O)Oc1c(Sc2ccccc2[N+](=O)[O-])c(C)nn1C(C)(C)C`, 8.84%.
As for `Cc1occc1C(=O)NNC(=O)COc1ccc(Br)cc1Br`, the figure is 12.1%; as for `COc1ccc(NC(=S)NC2CCCCCC2)c(OC)c1`, 2.89%; as for `CCCCOC(=O)C1=C(C)Nc2ncnn2C1c1cccc(OC)c1` (centres unmarked), 8.83%.
With `CSc1nc2n(n1)C(c1cc(Br)ccc1F)C(C(=O)N(C)C)=C(C)N2` (centres unmarked), the “hERG current change (%, negative = inhibition) at 1uM” value is -7.16%.
Regarding `CCc1csc(CCNC(=O)C2CCC(=O)N(Cc3ccccc3F)C2)n1` (centres unmarked), the “hERG current change (%, negative = inhibition) at 1uM” value is given as 5.32%.
Take `CC(CC(=O)O)CC(=O)Nc1ccccc1C(=O)O` (centres unmarked): the “hERG current change (%, negative = inhibition) at 1uM” value was -16.4%.
Consider `COc1ccccc1N(Cc1ccccc1)S(=O)(=O)c1cccc(C(=O)NC2CC(C)(C)NC(C)(C)C2)c1`, for which the “hERG current change (%, negative = inhibition) at 1uM” value is recorded as -2.06%.
As for `ClC(Cl)(Cl)c1ccccc1`, the figure is 12.4%.
For `CC1=CC(=O)C(C(C)C)=C/C1=N/OS(=O)(=O)c1ccccc1` the value was 7.66%; for `O=[N+]([O-])c1ccc(/C=C/c2ccncc2)cc1`, 2.2%.
